Measurements from the supplement of paper PMC8728848.
This is one part of the list.

Tests used:
Assay in all cases: glycan array binding signal (z-score within array); higher = stronger binding
Details in all cases: glycan notation: IUPAC condensed, linker removed
[1] = target: Gal(b1-4)GlcNAc(b1-3)Gal(b1-4)Glc
Procedure, shortened: (§1)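 Glycan array data were curated from 3228 arrays in the Consortium for Functional Glycomics database and kept only where the protein sequence was available. Glycan names were converted to IUPAC-condensed notation, and columns mapping to the same glycan were averaged. The binding signal is a within-array Z-score, averaged across arrays of the same protein sequence at different concentrations or buffers and across linkers. Negative Z-scores can be read as non-binding.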

[2] = target: Gal(b1-4)GlcNAc(b1-3)Gal(b1-4)GlcNAc
Procedure, shortened: as §1

[3] = target: Gal(b1-4)GlcNAc(b1-3)Gal(b1-4)GlcNAc(b1-2)Man(a1-3)[Gal(b1-4)GlcNAc(b1-3)Gal(b1-4)GlcNAc(b1-2)Man(a1-6)]Man(b1-4)GlcNAc(b1-4)GlcNAc
Procedure, shortened: as §1

[4] = target: Gal(b1-4)GlcNAc(b1-3)Gal(b1-4)GlcNAc(b1-2)Man(a1-3)[Gal(b1-4)GlcNAc(b1-3)Gal(b1-4)GlcNAc(b1-2)Man(a1-6)]Man(b1-4)GlcNAc(b1-4)[Fuc(a1-6)]GlcNAc
Procedure, shortened: as §1

[5] = target: Gal(b1-4)GlcNAc(b1-3)Gal(b1-4)GlcNAc(b1-2)[Gal(b1-4)GlcNAc(b1-3)Gal(b1-4)GlcNAc(b1-6)]Man(a1-6)[Gal(b1-4)GlcNAc(b1-3)Gal(b1-4)GlcNAc(b1-2)Man(a1-3)]Man(b1-4)GlcNAc(b1-4)GlcNAc
Procedure, shortened: as §1

[6] = target: Gal(b1-4)GlcNAc(b1-3)Gal(b1-4)GlcNAc(b1-2)[Gal(b1-4)GlcNAc(b1-3)Gal(b1-4)GlcNAc(b1-6)]Man(a1-6)[Gal(b1-4)GlcNAc(b1-3)Gal(b1-4)GlcNAc(b1-2)Man(a1-3)]Man(b1-4)GlcNAc(b1-4)[Fuc(a1-6)]GlcNAc
Procedure, shortened: as §1

[7] = target: Gal(b1-4)GlcNAc(b1-3)Gal(b1-4)GlcNAc(b1-3)Gal(b1-4)GlcNAc
Procedure, shortened: as §1

[8] = target: Gal(b1-4)GlcNAc(b1-3)Gal(b1-4)GlcNAc(b1-3)Gal(b1-4)GlcNAc(b1-2)Man(a1-3)[Gal(b1-4)GlcNAc(b1-3)Gal(b1-4)GlcNAc(b1-3)Gal(b1-4)GlcNAc(b1-2)Man(a1-6)]Man(b1-4)GlcNAc(b1-4)GlcNAc
Procedure, shortened: as §1

[9] = target: Gal(b1-4)GlcNAc(b1-3)Gal(b1-4)GlcNAc(b1-3)Gal(b1-4)GlcNAc(b1-2)Man(a1-3)[Gal(b1-4)GlcNAc(b1-3)Gal(b1-4)GlcNAc(b1-3)Gal(b1-4)GlcNAc(b1-2)Man(a1-6)]Man(b1-4)GlcNAc(b1-4)[Fuc(a1-6)]GlcNAc
Procedure, shortened: as §1

[10] = target: Gal(b1-4)GlcNAc(b1-3)Gal(b1-4)GlcNAc(b1-3)Gal(b1-4)GlcNAc(b1-2)[Gal(b1-4)GlcNAc(b1-3)Gal(b1-4)GlcNAc(b1-3)Gal(b1-4)GlcNAc(b1-6)]Man(a1-6)[Gal(b1-4)GlcNAc(b1-3)Gal(b1-4)GlcNAc(b1-3)Gal(b1-4)GlcNAc(b1-2)Man(a1-3)]Man(b1-4)GlcNAc(b1-4)[Fuc(a1-6)]GlcNAc
Procedure, shortened: as §1

[11] = target: Gal(b1-4)GlcNAc(b1-3)Gal(b1-4)GlcNAc(b1-3)Gal(b1-4)GlcNAc(b1-3)Gal(b1-4)GlcNAc(b1-2)Man(a1-3)[Gal(b1-4)GlcNAc(b1-3)Gal(b1-4)GlcNAc(b1-3)Gal(b1-4)GlcNAc(b1-3)Gal(b1-4)GlcNAc(b1-2)Man(a1-6)]Man(b1-4)GlcNAc(b1-4)GlcNAc
Procedure, shortened: as §1

[12] = target: Gal(b1-4)GlcNAc(b1-3)Gal(b1-4)GlcNAc(b1-3)Gal(b1-4)GlcNAc(b1-3)Gal(b1-4)GlcNAc(b1-2)Man(a1-3)[Gal(b1-4)GlcNAc(b1-3)Gal(b1-4)GlcNAc(b1-3)Gal(b1-4)GlcNAc(b1-3)Gal(b1-4)GlcNAc(b1-2)Man(a1-6)]Man(b1-4)GlcNAc(b1-4)[Fuc(a1-6)]GlcNAc
Procedure, shortened: as §1

[13] = target: Gal(b1-4)GlcNAc(b1-3)Gal(b1-4)GlcNAc(b1-3)Gal(b1-4)GlcNAc(b1-3)Gal(b1-4)GlcNAc(b1-2)[Gal(b1-4)GlcNAc(b1-3)Gal(b1-4)GlcNAc(b1-3)Gal(b1-4)GlcNAc(b1-3)Gal(b1-4)GlcNAc(b1-6)]Man(a1-6)[Gal(b1-4)GlcNAc(b1-3)Gal(b1-4)GlcNAc(b1-3)Gal(b1-4)GlcNAc(b1-3)Gal(b1-4)GlcNAc(b1-2)Man(a1-3)]Man(b1-4)GlcNAc(b1-4)[Fuc(a1-6)]GlcNAc
Procedure, shortened: as §1

[14] = target: Gal(b1-4)GlcNAc(b1-3)Gal(b1-4)GlcNAc(b1-3)Gal(b1-4)GlcNAc(b1-3)Gal(b1-4)GlcNAc(b1-3)Gal(b1-4)GlcNAc(b1-2)Man(a1-3)[Gal(b1-4)GlcNAc(b1-3)Gal(b1-4)GlcNAc(b1-3)Gal(b1-4)GlcNAc(b1-3)Gal(b1-4)GlcNAc(b1-3)Gal(b1-4)GlcNAc(b1-2)Man(a1-6)]Man(b1-4)GlcNAc(b1-4)GlcNAc
Procedure, shortened: as §1

[15] = target: Gal(b1-4)GlcNAc(b1-3)Gal(b1-4)GlcNAc(b1-3)Gal(b1-4)GlcNAc(b1-3)Gal(b1-4)GlcNAc(b1-3)Gal(b1-4)GlcNAc(b1-2)Man(a1-3)[Gal(b1-4)GlcNAc(b1-3)Gal(b1-4)GlcNAc(b1-3)Gal(b1-4)GlcNAc(b1-3)Gal(b1-4)GlcNAc(b1-3)Gal(b1-4)GlcNAc(b1-2)Man(a1-6)]Man(b1-4)GlcNAc(b1-4)[Fuc(a1-6)]GlcNAc
Procedure, shortened: as §1

[16] = target: Gal(b1-4)GlcNAc(b1-3)Gal(b1-4)GlcNAc(b1-3)Gal(b1-4)GlcNAc(b1-3)Gal(b1-4)GlcNAc(b1-3)Gal(b1-4)GlcNAc(b1-2)[Gal(b1-4)GlcNAc(b1-3)Gal(b1-4)GlcNAc(b1-3)Gal(b1-4)GlcNAc(b1-3)Gal(b1-4)GlcNAc(b1-3)Gal(b1-4)GlcNAc(b1-6)]Man(a1-6)[Gal(b1-4)GlcNAc(b1-3)Gal(b1-4)GlcNAc(b1-3)Gal(b1-4)GlcNAc(b1-3)Gal(b1-4)GlcNAc(b1-3)Gal(b1-4)GlcNAc(b1-2)Man(a1-3)]Man(b1-4)GlcNAc(b1-4)[Fuc(a1-6)]GlcNAc
Procedure, shortened: as §1

[17] = target: Gal(b1-4)GlcNAc(b1-3)Gal(b1-4)GlcNAc(b1-3)Gal(b1-4)GlcNAc(b1-3)Gal(b1-4)GlcNAc(b1-3)Gal(b1-4)GlcNAc(b1-3)Gal(b1-4)GlcNAc(b1-2)Man(a1-3)[Gal(b1-4)GlcNAc(b1-3)Gal(b1-4)GlcNAc(b1-3)Gal(b1-4)GlcNAc(b1-3)Gal(b1-4)GlcNAc(b1-3)Gal(b1-4)GlcNAc(b1-3)Gal(b1-4)GlcNAc(b1-2)Man(a1-6)]Man(b1-4)GlcNAc(b1-4)GlcNAc
Procedure, shortened: as §1

[18] = target: Gal(b1-4)GlcNAc(b1-3)Gal(b1-4)GlcNAc(b1-3)GalNAc
Procedure, shortened: as §1

[19] = target: Gal(b1-4)GlcNAc(b1-3)Gal(b1-4)GlcNAc(b1-3)[Gal(b1-4)GlcNAc(b1-3)Gal(b1-4)GlcNAc(b1-6)]GalNAc
Procedure, shortened: as §1

B1: PX9961U-pdi-543-24-543 (Parabacteroides distasonis) (protein)
chain: EEPVGEFLPGQVESEENIEGIVTGAYAVLDGYYASDAINSGCSNWQFGDVVSDDAYKGGGGTGDQNQIHLMEIFNANPTGIDFEARWAALYEGIKRCNQAIRLLNGSEVKNKEQRLAEMRFLRGHYYFNLKIIYNQIPWIDETLVDPNEYNKKSNIEFSSDQLWEKILEEFSAAYKVLPESQADYGRPTKMAARAYMAKVYLYQSKWKECLEACDEVIQSGKYELFPDFRNVFLPENDNCSEIIFAIQLSINDGSPNNENGSYGDRLLPPGGPYPVYGFLRPTQNLVNAYKTDVKGLPYNDGKDVSENDYVDVRLDHTLARPNIPFMDVQLYDWTPREASVYGPYSPKKRLVSLNSTYYSPIWPYVNALNFYVIRYADLLLWRAEAAIETGDLETGRKYINMIRERAKNTQHVKTMDQSQDAANYKVGVYDEPFKSKNEAVQALRMERRLEMAHEGIRFFDLVRWGVADEVINAYIAKEKVFRSHLQNAHFVKGKHEYFPIPQSMIDICGTEVMKQNPGY
Question: For B1, which “glycan array binding signal (z-score)” value [1] is on record?
Answer: Its value is -0.223.

Question: And the “glycan array binding signal (z-score)” value [2]?
Answer: Its value is -0.398.

Question: What about the “glycan array binding signal (z-score)” value [3] of the same binder?
Answer: Its value is -0.05.

Question: What about the “glycan array binding signal (z-score)” value [4] of the same binder?
Answer: The value was 0.935.

Question: What about the “glycan array binding signal (z-score)” value [5] of the same binder?
Answer: The value was 0.406.

Question: What about the “glycan array binding signal (z-score)” value [6] of the same binder?
Answer: Its value is 2.13.

Question: What about the “glycan array binding signal (z-score)” value [7] of the same binder?
Answer: The value was -0.214.

Question: What about the “glycan array binding signal (z-score)” value [8] of the same binder?
Answer: The value was 0.244.

Question: What about the “glycan array binding signal (z-score)” value [9] of the same binder?
Answer: The value was 2.73.

Question: And the “glycan array binding signal (z-score)” value [10]?
Answer: Its value is 6.31.

Question: What about the “glycan array binding signal (z-score)” value [11] of the same binder?
Answer: Its value is 2.22.

Question: What about the “glycan array binding signal (z-score)” value [12] of the same binder?
Answer: Its value is 1.2.

Question: And the “glycan array binding signal (z-score)” value [13]?
Answer: Its value is 3.38.

Question: What about the “glycan array binding signal (z-score)” value [14] of the same binder?
Answer: Its value is 0.683.

Question: What about the “glycan array binding signal (z-score)” value [15] of the same binder?
Answer: Its value is 7.11.

Question: What about the “glycan array binding signal (z-score)” value [16] of the same binder?
Answer: Its value is 2.08.

Question: And the “glycan array binding signal (z-score)” value [17]?
Answer: Its value is 1.28.

Question: What about the “glycan array binding signal (z-score)” value [18] of the same binder?
Answer: The value was 1.61.

Question: And the “glycan array binding signal (z-score)” value [19]?
Answer: The value was 1.19.
